Results reported in PubChem BioAssay AID602233 (National Center for Advancing Translational Sciences (NCATS), 2012).
About 170 (0.045%) of roughly 380,000 compounds were called active. The call rests on the fitted dose curve; in most records, active means well fitted inhibition curve with a large enough effect; inconclusive means small, poorly fitted or top-dose-only effect; inactive means no such curve, though single readings can be large or run the other way. This is a selection; strong and weak results do not stand in their true shares. Some structures have more than one record in an assay (separate samples or runs), and their calls can disagree. Where a SMILES comes first, the peptide text is derived from it. Bridges are numbered along the chain shown (N, C = ends). [ ]: non-standard residue; d: D form. The star is where a group is joined. X1 = CCC(C)C(N)C1=NC(C(=O)*)CS1; dOrn = NCCC[C@@H](N)C(=O)O

Each compound was assayed against Phosphoglycerate kinase, glycosomal (Trypanosoma brucei brucei) (UniProt P07378) (assay: qHTS Assay to Find Inhibitors of Phosphoglycerate Kinase). Details: PGK/GAPDH coupled, Kinase-Glo luminescence, 60 min; series mostly up to 57.5 µM; activity change, negative = inhibition: at the top concentration.
How it was run: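 Luminescent ATP detection (Kinase-Glo Plus) follows a 60-minute room-temperature incubation, with wells lacking PGK as controls. Buffer: 100 mM TEA (pH 7.6), 5 mM MgCl2, 0.01% Tween-20. Coupling enzyme GAPDH (100 nM final) supplies unstable 1,3-BPG in-well.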
Further: nearly all actives have a fitted effect of over 60% in size.
On the % scale 0 is the no-effect control and ±100 the full control effect; potency means the concentration at half of the fitted maximal effect.

Activity change, negative = inhibition, inactive:
COc1ccc(CNc2ccc(C)c(C)c2)cc1 23.9%
Cc1nc(N)nc(N)c1/C=C/C(C)(C)c1ccc(Cl)cc1 3.35%
CC(/C=C\c1cccnc1)=C/C(=O)O -6.93%
CC(C)N1CCN(Cc2cnc(N3CCCC3)s2)CC1CCO (stereo unspecified) 19%
Cc1sc(NC(=O)c2ccc(Br)s2)c(C(N)=O)c1C 21.2%
CC(C)(C)OC(=O)C[C@@H]1C/C=C\C[C@@H](CC(=O)N(CCO)Cc2ccccc2)C(=O)NC[C@@H](c2ccccc2)OC1=O 1.42%
O=C(Nc1ncc([N+](=O)[O-])s1)c1cccs1 -6.02%
O=c1cc(-c2ccc(O)c(O)c2)oc2cc(O)c([C@@H]3O[C@H](CO)[C@@H](O)[C@H](O)[C@H]3O)c(O)c12 -1.15%
CCN1C(c2ccccc2)=C(c2ccccc2)S/C1=C/C=C1\SC(=S)N(C)C1=O -29.3%
CCN(CC)c1ccc(NC(=O)c2ccco2)cc1 20.9%
CCc1nnc(NC(=O)C2CCCN2C(=O)Nc2ccccc2)s1 (stereo unspecified) 22.1%
Cc1ccc(/C=N/NC(=O)CCn2nc(C)cc2C)c(C)c1 -1.49%
COc1cc(OC)cc(C(=O)N[C@H](C(=O)Nc2nc(-c3cc(OC)ccc3OC)cs2)C(C)C)c1 31.8%
CC1CN(C(=O)c2cc3c(=O)n4ccccc4nc3s2)CC(C)O1 (stereo unspecified) 25%
CC=Cc1cc(OC)c2c(c1)C(C)C(c1ccc(O)c(OC)c1)O2 (stereo unspecified) 17%
Cn1nc(C(=O)Nc2cccnc2)c2ccccc2c1=O 19.1%
CC(C)c1nc(Cl)c(C#N)c2c1CSC(C)(C)C2 18.5%
Cc1ccc(S(=O)(=O)c2nc(NN(C)C)sc2Cl)cc1 42%
COc1ccc(S(=O)(=O)N2CCC(C(=O)NC3(C)CCS(=O)(=O)C3)CC2)cc1OC (stereo unspecified) 20.3%
CC(=C/c1ccco1)/C=N/N1CCN(c2ccccc2)CC1 -11.1%
CC(=O)Nc1cc(-c2ccccc2)ccc1O 20.3%
O=C1/C(=C/c2ccncc2)CCc2ccccc21 -19.5%
CCOC(=O)N1CCC(NC(=O)C2CCN(S(=O)(=O)N3CCC(C)CC3)CC2)CC1 25.1%
CC(C)(C)C(=O)COC(=O)C1=NN(c2ccccc2)C(=O)CC1 16.2%
Cn1c(=O)c2c(ncn2CCNC2=NCCCCC2)n(C)c1=O 5.63%
Cc1cccc(Cn2c(O)c(N=NC(=S)Nc3ccccc3F)c3ccccc32)c1 15.9%
COc1cccc(C2N(c3ccccc3)CCN2c2ccccc2)c1OC 8.41%
CC(C)(C)OC(=O)C[C@@H]1C/C=C\C[C@@H](CC(=O)NCCO)C(=O)N2CCC[C@H]2COC1=O -10%
Cc1nc2ccccn2c1C(=O)NN 31%
CN(C)c1ncc(S(=O)(=O)c2ccc(Cl)cc2)c(-c2ccc(Cl)cc2Cl)n1 17%
CCOC(=O)c1c(S(=O)(=O)NCC(=O)Nc2cc(C)ccc2C)c(C)n(C)c1C -1.55%
C[C@@H]1O[C@@H](OC[C@H]2O[C@@H](Oc3c(-c4ccc(O)cc4)oc4cc(O)cc(O)c4c3=O)[C@H](O)[C@@H](O)[C@@H]2O)[C@H](O)[C@H](O)[C@H]1O -1.24%
COc1ccc2nc3oc(C(=O)N4CCN(c5cccc(Cl)c5)CC4)cc3cc2c1 21.4%
COc1nc(N)c(S(=O)(=O)c2ccccc2)cc1C#N 24.7%
O=C1CCN(c2ccc([N+](=O)[O-])cc2F)CC1 23.7%
COc1ccc(OC)c(/C=C/C(=O)OCC(=O)N2C(C)CCCC2C)c1 (stereo unspecified) 20.2%
CN(CCC#N)C(=O)COC(=O)c1c2c(nc3ccccc13)/C(=C\c1ccco1)CC2 -28.8%
COc1ccc(Nc2nc(NCc3ccco3)nc(N)c2[N+](=O)[O-])cc1 24.4%
Cc1cc(C)n2nc(C)c(Br)c2n1 31.8%
COc1cccc(C(=O)C2CCCN(C(=O)CCc3scnc3C)C2)c1 (stereo unspecified) 23.9%
COc1ccc(CC(=O)NNc2ncnc3c2cnn3-c2ccccc2)cc1 27.9%
O=c1c2ccccc2nc(/C=C/c2ccc3c(c2)OCO3)n1CCCO -7.63%
Cc1ccc(-c2nnc3ccc(SCC(=O)Nc4cc(C)on4)nn23)cc1 33.2%
CCN(CC)S(=O)(=O)c1cccc(NC(=O)CSc2nnc(N)s2)c1 29.8%
CCCC(C(=O)NC1CCCC1)N(CC1CCCO1)C(=O)CNS(=O)(=O)c1ccc(F)cc1 (stereo unspecified) 19.3%
O=C(NCCCN1CCCC1)c1ccc2c(Cl)c3c(nc2c1)CCCC3 1.62%
NC[C@H](O)c1ccc(O)c(O)c1 -4.16%
COC(=O)C1=C(C)N=c2s/c(=C/c3cccs3)c(=O)n2C1c1ccc(F)cc1 (stereo unspecified) 22.1%
CC(C)(C)OC(=O)C[C@H]1C/C=C\C[C@@H](CC(=O)N(CCO)Cc2ccccc2)C(=O)NC[C@H](c2ccccc2)OC1=O -0.192%
C#CCOCCOCCOCCNc1nc(N2CCN(C(=O)CCCCCCCCCCNC(=O)[C@H]([C@@H](C)CC)n3cc(CCCCCN)nn3)CC2)nc(N2CCN(C(=O)CCCCCCCCCCNC(=O)[C@H](CO)n3cc(CCCCCN)nn3)CC2)n1 17.2%
O=C(O)c1cccc(-n2cccc2/C=C\[N+](=O)[O-])c1 -27.9%
Cc1nn2c(NCCOCCO)c3c(nc2c1-c1ccccc1)CCCC3 18.5%
CC(=O)N(C(C)=O)c1nc2nc(C)cc(C)n2n1 21.9%
CN(C)C(CNC(=O)CNC(=O)c1ccc(Br)cc1)c1ccccc1 (stereo unspecified) 12.4%
Cc1nonc1OCCNc1ccc([N+](=O)[O-])cc1 31.2%
Cc1ccc(-c2nc(CS(=O)CC(=O)N3CCN(c4cccc(Cl)c4)CC3)c(C)o2)cc1 (stereo unspecified) 20.3%
CC1CCN(S(=O)(=O)c2ccc3nc(N4CCN(c5ccccc5)CC4)ccc3c2)CC1 -2.14%
c1ccc(-c2n[nH]c(-c3ccccn3)n2)nc1 -11.9%
O=C(N/N=C/c1ccccc1Cl)c1ccc(F)cc1 28.9%
COc1ccc(CCNC(=S)Nc2cccc(C)c2C)cc1 17.9%
CC(/C=N\N1CCN(Cc2ccc(C)cc2)CC1)=C\c1ccccc1 -4.43%
O=C(O)c1cc(-c2ccco2)nc2ccc(Br)cc12 -15.3%
CCc1cc(=O)oc2cc(C)cc(OCC(=O)NC3CC3)c12 17.3%
CCCOc1ccc(CNC(=O)CCCn2nc(C)c3sc4ccccc4c3c2=O)cc1 17.2%
O=C1/C(=C\c2ccco2)CCC/C1=C\c1ccco1 -2.62%
CCC(C)C(N)C1=NC(C(=O)N[C@@H](CC(C)C)C(=O)N[C@H](CCC(=O)O)C(=O)N[C@H](C(=O)N[C@H]2CCCCNC(=O)[C@H](CC(N)=O)NC(=O)[C@@H](CC(=O)O)NC(=O)[C@H](Cc3cnc[nH]3)NC(=O)[C@@H](Cc3ccccc3)NC(=O)[C@H]([C@@H](C)CC)NC(=O)[C@@H](CCCN)NC2=O)[C@@H](C)CC)CS1 (stereo partly specified) (X1-L[dE]IK[dOrn]I[dF]H[dD]N; lactam 4-C) 2.35%
Cc1cc(C)cc(-n2c(C)cc(/C=C3\C(=N)N4N=C(CC(C)C)SC4=NC3=O)c2C)c1 19.8%

Potency, active:
CCc1ccc(/C(C)=N/NC(=O)CNC(=O)/C=C/c2ccco2)cc1 14.1 µM
C=C(C)C(=O)Nc1cccc(C2=NOC3(C2)C[C@@H](C(N)=O)N(C(=O)c2ccc(Cl)cc2)C3)c1 (stereo partly specified) 2.24 µM
O=C(NN1C(=O)/C(=C/C=C/c2ccco2)SC1=S)c1ccncc1 14.1 µM
O=C(O)c1cc(O)c2c(c1)[C@@H]([C@H]1c3cc(C(=O)O)cc(O)c3C(=O)c3c(O[C@@H]4O[C@H](CO)[C@@H](O)[C@H](O)[C@H]4O)cccc31)c1cccc(O[C@@H]3O[C@H](CO)[C@@H](O)[C@H](O)[C@H]3O)c1C2=O 3.16 µM
Cc1c(CC(=O)N2CCN(C(=O)C3COc4ccccc4O3)CC2)c(=O)oc2c(O)c(O)ccc12 (stereo unspecified) 8.91 µM
COc1ccc(-c2nc(-c3ccccn3)no2)cc1 15.8 µM
CC(=O)NC1C(=O)N(CCN2CCOCC2)c2ccc(C)cc21 (stereo unspecified) 20 µM
O=C(O)c1ccc(-c2ccc(/C=C3\NC(=O)N(Cc4ccc(Cl)cc4)C3=O)o2)cc1Cl 25.1 µM
C=C(C)C(=O)Nc1cccc(C2=NOC3(C2)C[C@H](C(N)=O)N(C(=O)C(c2ccccc2)c2ccccc2)C3)c1 (stereo partly specified) 7.94 µM
CCCCCC(=O)Nc1cc(S(=O)(=O)O)cc2cc(S(=O)(=O)O)cc(O)c12 1.12 µM
COc1ccc(C2=CC3=C(Br)C(=O)C(C)(OC(=O)C4CCCC4)C(=O)C3=CO2)cc1 (stereo unspecified) 17.8 µM
O=C(O)COc1ccc2c(c1)O/C(=C\c1ccco1)C2=O 28.2 µM
O=C1C=CC2=C3c4cc(O)c(O)cc4CC3(O)COC2=C1O (stereo unspecified) 2.82 µM
CN(C)c1ccc(N=Nc2nc3ccccc3n2C)cc1 14.1 µM
NS(=O)(=O)c1cc(C(=O)NC2CCSc3ccccc32)ccc1Cl (stereo unspecified) 1 µM
CN(CCOC(=O)/C=C/c1ccco1)Cc1ccccc1 11.2 µM
CC(C)C(C(=O)O)N1C(=O)/C(=C/C=C/c2ccco2)SC1=S (stereo unspecified) 8.91 µM
O=S(=O)(O)c1cc(O)c(N=Nc2ccc(O)cc2O)c2ccccc12 25.1 µM
Cc1csc(N=Nc2ccc(N(C)C)cc2)[n+]1[O-] 15.8 µM
Cc1nc2cc(-c3ccccc3)sc2c(=O)n1N 10 µM
O=C(O)C1Nc2c(Cl)cc(Cl)cc2C2C=CCC12 (stereo unspecified) 25.1 µM

Potency, inactive:
CCN1CCN(Cc2ccc(NC(=O)c3ccc(C)c(NC(=O)N4CCNC4=O)c3)cc2C(F)(F)F)CC1
CO/N=C(\C(=O)N[C@@H]1C(=O)N2C(C(=O)O)=C(COC(C)=O)CS[C@H]12)c1csc(N)n1 (stereo in doubt)

outcome, inactive:
COc1ccc(N2CCN(C(=O)Nc3ccccc3Cl)CC2)cc1
